Assay results reported in patent publication US9096585B2 (Icahn School of Medicine at Mount Sinai, priority 2010, dated 2015).

Assays:
influenza A virus = experiment: microbe, parasite or virus in culture; settings: determined by HA assay, Table 3; for Inhibition of FluA: A549
[1] = tested on: IFN-13 and other antiviral genes (ISG56, IRF7, RIG-I, and TNF-α); experiment: Quantitative RT-PCR of IFN and antiviral genes in A549 cells
influenza A/WSN/33 virus = experiment: Plaque-reduction assays with influenza A/WSN/33 virus in cell lines of different species, with or without pyrimidine supplements; settings: 10 μM A3; 10-fold excess base; seen only in MDCK cells and not in A549 cells
[2] = tested on: influenza B/Yamagata/88 virus; experiment: Influenza B virus replication in A549 cells; assay type: cell-based; settings: concentration of 11.2 μM, compared with influenza A virus

| SMILES | Inhibition of FluA (influenza A virus) | also measured |
| --- | --- | --- |
| O=C(CSc1nnc(-c2cccnc2)o1)N1CCCC1 [Compound A3-11, 2-(5-(pyridin-3-yl)-1,3,4-oxadiazol-2-ylthio)-1-(pyrrolidin-1-yl)ethanone] | none ** |  |
| Cc1[nH]c2ccc(-c3nnc(SCC(=O)N4CCCC4)o3)cc2c1C [Compound A3] |  | induction of IFN-13 and other antiviral genes (ISG56, IRF7, RIG-I, and TNF-α) [1]: no induction; effect of uracil on the inhibitory effect of A3 (influenza A/WSN/33 virus): reverse the inhibitory effect |
| Nc1nc(-c2ccc(Cl)cc2)cs1 [Compound A35-3] | none ** |  |
| CN(C)c1nc(-c2ccc(Br)cc2)cs1 [Compound A35-5] | ~65% ** | IC50 (influenza A virus; Influenza A virus, A549, read-out: IC50 (A549), A549): 12.3 µM |
| CN(c1nc(-c2ccccc2)cs1)C1CCS(=O)(=O)C1 (stereo not drawn) [Compound A35-2] | none ** |  |
| COc1ccc(-c2nnc(SCC(=O)N3CCCC3)o2)cc1 [Compound A3-8, 2-(5-(4-methoxyphenyl)-1,3,4-oxadiazol-2-ylthio)-1-(pyrrolidin-1-yl)ethanone] | none ** |  |
| CN(c1nc(-c2ccc(Br)cc2)cs1)C1CCS(=O)(=O)C1 (stereo not drawn) [Compound A35] |  | inhibition of influenza B virus [2]: less significant inhibition |

Marks after values point to notes of the source that are not given here.
